The values that follow come from PubChem BioAssay AID488969 (Vanderbilt High Throughput Screening Facility, 2010).

Over roughly 110,000 compounds, “z-score” has its median near -0.1; the highest 2% begin near 2. The list shows a part of the results. Active and inactive are the calls of the source.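 The calls were made as follows: active = z-score in the third read window above 3 or below -3; inactive = the rest.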

For the assay, the target named is Metabotropic glutamate receptor 8 (Rattus norvegicus) (UniProt P70579). In words: rat mGluR8 modulators via GIRK flux, primary screen, cell-based, thallium flux, HTS (AID 488969). The conditions noted are these: HEK293 rat mGluR8, GIRK (G protein-gated inwardly rectifying potassium channel) thallium flux, FluoZin2; at 10 µM; stronger effect = higher value; submaximal glutamate (EC20) added with thallium.
Chain of UniProt P70579 (P70579 whole entry, looked up): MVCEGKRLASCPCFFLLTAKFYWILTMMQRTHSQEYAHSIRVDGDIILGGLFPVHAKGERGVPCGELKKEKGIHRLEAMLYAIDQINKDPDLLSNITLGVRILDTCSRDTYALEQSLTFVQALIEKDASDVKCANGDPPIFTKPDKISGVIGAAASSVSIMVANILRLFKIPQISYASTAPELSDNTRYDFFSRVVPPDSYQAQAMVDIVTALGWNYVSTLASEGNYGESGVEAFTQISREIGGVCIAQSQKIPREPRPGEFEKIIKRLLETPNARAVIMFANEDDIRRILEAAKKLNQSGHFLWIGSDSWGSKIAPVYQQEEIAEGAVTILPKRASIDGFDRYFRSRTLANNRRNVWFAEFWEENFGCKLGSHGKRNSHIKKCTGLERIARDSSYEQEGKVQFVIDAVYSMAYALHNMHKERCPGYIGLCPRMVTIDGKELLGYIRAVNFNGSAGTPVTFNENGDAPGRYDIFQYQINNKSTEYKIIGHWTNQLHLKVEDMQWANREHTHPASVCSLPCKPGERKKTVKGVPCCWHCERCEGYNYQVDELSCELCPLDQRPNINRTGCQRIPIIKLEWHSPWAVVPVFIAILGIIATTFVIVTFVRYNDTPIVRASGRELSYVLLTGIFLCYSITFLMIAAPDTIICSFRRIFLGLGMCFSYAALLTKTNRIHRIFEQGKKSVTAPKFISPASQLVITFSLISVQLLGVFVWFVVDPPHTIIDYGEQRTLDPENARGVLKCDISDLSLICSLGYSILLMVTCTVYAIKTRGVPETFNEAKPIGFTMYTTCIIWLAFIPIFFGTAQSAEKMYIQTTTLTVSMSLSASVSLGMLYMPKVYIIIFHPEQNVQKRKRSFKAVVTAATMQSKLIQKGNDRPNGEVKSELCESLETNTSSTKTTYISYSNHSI
Compound `COc1ccc(-c2nnc(SC(C)C(=O)Nc3ccc4c(c3)OCCO4)o2)cc1` (stereo not given) returned a z-score of 1.65. With `O=C(CNC(=O)c1ccc(N2C(=O)c3ccccc3C2=O)cc1)OCC(=O)c1cccc2ccccc12` the figure was -0.565; with `COc1ccc(CNC(=O)C2CCN(S(=O)(=O)c3cc(OC)ccc3OC)CC2)cc1`, -0.313. The result for `CCn1c(COc2cccc3ccccc23)nnc1SCC(N)=O` reads 0.457.

`CCOCCCNC(=O)C(c1ccc(C)cc1)N1CCOCC1` (stereo not given) gave a z-score of -0.197. The result for `CCCCn1c(SCC(=O)Nc2nccs2)nc2ccccc2c1=O` reads 0.559; that for `Cn1c(CNc2ccccn2)c(C#N)c2ccccc21`, -0.123; that for `Oc1ccccc1-c1cc(-c2ccccc2Cl)[nH]n1`, -0.137. The result for `CCC(CC)C(=O)Nc1cccc(C(=O)NCc2ccco2)c1` reads -0.972; that for `Cc1cccc(NC(=O)c2nc(-c3ccccc3)n(-c3ccccc3)n2)c1C`, 0.835. With `CCOC(=O)c1ccc(CNCc2ccc(Br)cc2)cc1` the figure was active: -3.34. The compound `Cc1nn(CC(=O)N(C)Cc2ccc(F)cc2)c(C)c1[N+](=O)[O-]` returned a z-score of -0.458. As for `Cc1nc2nc(SCC(=O)NCc3ccco3)nn2c(C)c1Cc1c(F)cccc1Cl`, the z-score was -0.482. With `N#Cc1cc(-c2ccccc2)nnc1Oc1ccccc1Cl` the figure was 0.0526; with `COC(=O)c1cc(C(=O)c2ccc(Cl)cc2Cl)cn1C`, -0.292. In the case of `COC(=O)C1=C(CSCc2ccco2)NC(=O)NC1c1cc(C)ccc1C` (stereo not given), the z-score was -0.361. The result for `CN(C)C(=O)CSc1nc2ccccc2n1Cc1ccccc1` reads -0.129; that for `CC(C)(C)NCc1cc(Cl)ccc1OCc1cccs1`, 0.678. The result for `COc1ccc(OC)c(S(=O)(=O)Nc2ccccc2C)c1` reads -0.584; that for `COc1ccc(Cl)cc1N1CCN(CCNC(=O)Nc2ccccc2C)CC1`, 1.4; that for `COc1ccc(-c2nc(C#N)c(NCCCN3CCOCC3)o2)cc1`, 0.105. With `C=C(C)c1cccc(C(C)(C)NC(=O)N2CCCC(C)C2)c1` (stereo not given) the figure was -0.261; with `Cc1ccc(NC(=O)Nc2ccccc2C(=O)NCc2ccccc2)cc1`, -0.199. Regarding `COc1ccc(N(C)C(=O)CCC(=O)Nc2ccc3nc(N4CCOCC4)cc(C)c3c2)c(OC)c1`, the z-score was -0.423.

Take `COc1ccc(CCN(Cc2nc(-c3ccccc3)no2)Cc2nc(-c3ccccc3)no2)cc1OC`: the z-score stood at 0.106. With `O=C(c1ccc(N2CCNCC2)cc1)c1cccnc1` the figure was -0.0635.

In turn, `CN(C)CCNC(=O)c1ccc(Cl)s1` gave a z-score of -0.326.

With `O=C(Cc1ccc2c(c1)OCCO2)N1CCN(S(=O)(=O)c2cccc(C(F)(F)F)c2)CC1`, the z-score is -0.325. For `CC1(C)C(=O)C2(CCCCC2)C(=O)OC1c1ccc(O)cc1` (stereo not given), the z-score was 0.812. The result for `N#Cc1cc(C(=O)c2cc(Br)ccc2O)cn(C2CCCCC2)c1=O` reads 0.172; that for `COc1cc(-c2nn3c(-c4cccc(C)c4)nnc3s2)cc(OC)c1OC`, -1.05. With `C=CCSc1nnc(-c2ccccc2N=Cc2c(C)[nH]n(-c3ccccc3)c2=O)c(=O)[nH]1` the figure was -1.38; with `Cc1cc(N2CCCC2)ccc1/C=N/n1cnnc1`, 0.0308; with `CN(C1CCCCC1)S(=O)(=O)c1ccc(NC(=O)c2ccco2)cc1`, -1.31.

In the case of `c1ccc(-c2ccccc2-c2nc(-c3cccnc3)no2)cc1`, the z-score is -0.645.

`O=C(NCCCCc1ccccc1)C1CC(c2ccc([N+](=O)[O-])cc2)=NO1` (stereo not given) returned a z-score of -0.194. With `C=CCn1c(O)c(N=NC(=O)c2ccccc2NS(=O)(=O)c2cccs2)c2ccccc21` the figure was 0.211; with `Cc1cccc(N2C(=O)CC(N(C(=O)c3ccco3)c3cccc(C)c3)C2=O)c1` (stereo not given), -1.08; with `CCN(CC)S(=O)(=O)c1ccc2[nH]cc(C(=O)NCCC3=CCCCC3)c(=O)c2c1`, -0.495. `CC(C)NC(=O)c1ccc(COCC(F)(F)C(F)F)cc1` gave a z-score of 0.168. With `Fc1cc2nccnc2cc1N1CCSCC1` the figure was 1.89; with `Cc1cccc(Nc2nc(N)nc(CN3CCN(c4ccccc4)CC3)n2)c1`, -0.569. The result for `CC(C)C(NC(=O)c1ccc(F)cc1)C(=O)OCC(=O)N1CC(=O)Nc2ccccc21` (stereo not given) reads 0.0927; that for `O=C1c2ccccc2C(=O)N1CCCCON1C(=O)c2ccccc2C1=O`, 0.763; that for `Cc1ccc(CN(C#N)c2nc(C)cc(C)n2)cc1`, -0.467. The result for `Cc1nn(-c2nc3ccccc3s2)c(N)c1Sc1ccc(F)cc1` reads -1.37; that for `COC(=O)CN1C(=O)C(O)(CC(=O)c2ccc(C)o2)c2ccccc21` (stereo not given), -0.302; that for `c1cn2cc(-c3ccc4c(c3)OCO4)nc2s1`, 0.0768. `COc1ccccc1CNC(=O)CN(c1ccc(C)cc1)S(=O)(=O)c1c(C)nn(C)c1C` registered a z-score of -0.65. The result for `O=C(Cc1cccs1)N1CCC(c2nc3c(nnn3Cc3ccc(F)cc3)c(=O)[nH]2)CC1` reads -0.331. With `CCSc1nnc2n(N)c(=O)c3ccccc3n12` the figure was -0.443; with `COC(=O)c1ccc(OCC(O)CN2C(=O)NC(C)(C)C2=O)cc1` (stereo not given), -0.331; with `COc1ccc(CCNS(=O)(=O)c2ccc3c(c2)OCCO3)cc1`, 0.251.

In the case of `CCC(C)(C)NC(=O)C(c1ccco1)N(C(=O)CNC(=O)c1cccs1)c1cccnc1` (stereo not given), the z-score came to 0.113. Consider `O=C1C2C3C=CC(CC3)C2C(=O)N1c1ccc2c(c1)OCO2` (stereo not given), for which the z-score is -0.00168.

`CC1(C)N=C(SCC(=O)Nc2ccc(Cl)cc2Cl)C(c2ccccc2)=N1` registered a z-score of -0.0911. With `C=CCn1c(CC(=O)OC)csc1=Nc1ccc(C(C)=O)cc1` the figure was 0.286; with `CN(C)CCNCc1ccc(OC2CCCC2)cc1`, -0.485. As to `CCOc1ccc2nc(NC(=O)c3cccc(-c4cc5ccccc5oc4=O)c3)sc2c1`, the z-score was -0.225. The result for `CCOC(=O)Nc1ccc([N+](=O)[O-])cc1OC` reads -0.0696; that for `CSc1ccccc1C(=O)NC1CCCC1`, 0.271; that for `Cc1ccc(S(=O)(=O)N2CCCOC2)cc1`, -0.142. With `O=C1c2cccnc2Nc2ccccc2N1CCCF` the figure was -0.0175; with `COC(=O)/C=C1/SC(=NC(=O)c2ccccc2)NC1=O`, -0.201. The result for `Cc1ccc(S(=O)(=O)Nc2ccccc2CNc2cccc(C)n2)cc1` reads -0.278.

With `O=C(NC1CCCC1)C(c1ccsc1)N(C(=O)Cc1cccs1)c1ccc(F)cc1` (stereo not given), the z-score was 0.287. The result for `O=C(Nc1ccc2c(c1)OCO2)C1CC(c2ccc(F)cc2)=NO1` (stereo not given) reads 0.0283; that for `CC1(C)CC(=O)C2=C(C1)N(Cc1ccco1)C(=O)C2(O)C(F)(F)F` (stereo not given), 0.906; that for `FC(F)(F)c1cccc(OCCOCCn2cncn2)c1`, 0.491. With `Cc1ccc(C(=O)Nc2nc(=O)n(C(=O)c3ccccc3C)s2)cc1` the figure was -2.23. The result for `CCOC(=O)c1nn(-c2ccc(F)cc2)c2nc(Nc3ccccc3)cc(=O)n12` reads -0.123; that for `O=C(/C=C/c1ccc([N+](=O)[O-])cc1)NCc1cccnc1`, -0.501. `CCCNC(=O)C1CC(=O)N(c2ccc(OCC(=O)Nc3cccc(C)c3C)cc2)C1` (stereo not given) gave a z-score of 0.558. `Cc1ccc(C)c(NC(=S)NC2CC3CCC(C2)N3Cc2ccco2)c1` (stereo not given) displayed a z-score of 0.33. The result for `CCCc1cc(=O)[nH]c(SCC(=O)N(CC)C2CCS(=O)(=O)C2)n1` (stereo not given) reads -0.258. The result for `O=c1c(-c2ccc(Br)cc2)coc2c(CN3CCOCC3)c(O)ccc12` reads -0.5; that for `CCN1CCCC1Cn1cnc2c([nH]c3cc(OC)ccc32)c1=O` (stereo not given), -0.271; that for `CC(C)Cn1c(-c2ccc(Cl)cc2)cnc1SCC(=O)N1CCOCC1`, -0.0871. With `CN1CCc2cc3c(c4c2C1CC41CCC(=NO)CC1)OCO3` (stereo not given) the figure was 0.139; with `Cc1ccnc(NC(=S)NC(=O)/C=C/c2ccc(Cl)cc2)c1`, -0.596; with `CCn1c(=O)c(C(=O)NCCN2CCCCC2)c(O)c2ccccc21`, 0.12. As to `O=C(O)c1cnc(-c2ccccc2)nc1Sc1ccc(Cl)cc1Cl`, the z-score was -0.66.

Regarding `Cc1cc2oc(=O)cc(Cn3nnc(-c4ccc(Cl)cc4)n3)c2cc1C(C)C`, the z-score is -0.447. With `C/C(CC(=O)Nc1ccc(N(C)C)cc1)=N\NC(=O)c1cnccn1` the figure was -0.137; with `COc1cccc(CNc2ccc(F)c(Cl)c2)c1`, -0.0514. With `Cc1cc2c(cc(C(=O)N3CCC(C(=O)N4CCCC4)CC3)n2Cc2c(F)cccc2Cl)o1` the figure was -0.904; with `O=C(Nc1nnc(Cc2c[nH]c3ccccc23)s1)c1ccc(Cl)cc1Cl`, -0.0402; with `CCc1ccc(-c2c(C)sc(NC(=O)C3CCC3)c2C#N)cc1`, -0.0846. The result for `CCC(=O)Oc1ccc(C(=O)Nc2ccc3c(c2)C(=O)N(C2CCCCC2)C3=O)cc1` reads -0.504.

Compound `O=C(COc1cccc(C(F)(F)F)c1)Nc1ccc(S(=O)(=O)N2CCCC2)cc1` had a z-score of -0.216.

`COc1ccc(C(CC(=O)NCCN2CCOCC2)NS(=O)(=O)c2ccc(C)cc2)cc1` (stereo not given) came in with a z-score of -0.382. With `O=C(Nc1ccccc1)N1CCN(c2nc3ccccc3s2)CC1` the figure was -1.2; with `CCOCCOc1nc2c(c(=O)n(C)c(=O)n2C)n1CCc1ccccc1`, -0.18.

With `COc1ccc(CSC2=NCCN2)cc1Cl`, the z-score came to 0.41. With `COc1cc(S(=O)(=O)NC2CCCCC2C)ccc1Cl` (stereo not given) the figure was -0.903; with `NC(=O)C1CCN(C(=O)COc2cccc3ccccc23)CC1`, 0.0874; with `O=c1cc(Nc2ccc3c(c2)OCCO3)[nH]c(=O)n1-c1ccc(Br)cc1`, 0.43. With `CCOC(=O)C1=C(C)Nc2ncnn2C1c1c[nH]c2ccccc12` (stereo not given) the figure was 0.181.

`CN1C(=O)CC2(CC(=O)N(Cc3ccccc3)C2)C1=O` (stereo not given) displayed a z-score of -0.0247. With `CCc1cccc2c(C(=O)CSc3nnc(-c4ccoc4C)n3C)c[nH]c12` the figure was -0.805.

Consider `Cn1c(/N=C/c2c[nH]c3ccccc23)nc2ccccc21`, for which the z-score is 1.1. With `COC(=O)c1ccc(/C=C/C(=O)c2ccc(OC)c(OC)c2)cc1` the figure was -0.225; with `CC(C)CNC(=O)COC(=O)CNC(=O)c1cc(Cl)cc([N+](=O)[O-])c1`, -0.284. The compound `CCOc1cc(/C=C(/C#N)C(=O)Nc2ccc(O)cc2)cc(Br)c1O` showed a z-score of -0.253. In turn, `O=C(c1cn(-c2ccccc2)nc1-c1cccs1)N1CCN(c2ccc(F)cc2)CC1` displayed a z-score of 0.133. The compound `O=C(CN1CCOc2ccccc21)N1CCN(c2cccc(Cl)c2)CC1` displayed a z-score of -0.327. With `CCOc1cc(N2CCOCC2)c(OCC)cc1NC(=O)COC(=O)c1cc(C)cc(C)c1` the figure was -0.471; with `CC(C)N1C(=S)SC(C)(C)C1n1oc(=O)n(-c2ccc(Cl)c(Cl)c2)c1=O` (stereo not given), -0.253. With `COc1cccc(OC)c1C(=O)Nc1ccc(N2CCCCC2)cc1` the figure was 1.15; with `Cc1cc(N2CCN(S(=O)(=O)c3ccc(C)c(C)c3)CC2)c2ccccc2n1`, 0.774.
